Test results from PubChem BioAssay (NCI).
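Cells were grown in 96-well plates and exposed to each compound for 48 hours at five concentrations; endpoints were interpolated linearly between bracketing concentrations, or set to the highest concentration if not reached. GI50 is the concentration that inhibits growth by half. TGI: concentration producing complete growth inhibition.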

Each compound was assayed on NCI-H322M lung (assay: NCI tumour cell line growth inhibition, 48 h).

First: C=CC(=O)Nc1nc(-c2cccc(NS(=O)(=O)c3cccc4c(N(C)C)cccc34)c2)cs1
Second: Cn1cc(-c2cc(N)n3nc(-c4cn(C)c5ccccc45)cc3n2)c2cc(F)ccc21
The GI50 of the first is 5.3-fold higher: 11 µM for the first, 2.09 µM for the second.

First: Cc1ccc(S(=O)(=O)c2nc(-c3ccccc3)oc2S(=O)(=O)CC(=O)N2CCCC2)cc1
Second: CC(C)(C)c1cc(/C=C2\S/C(=N/c3ncn[nH]3)NC2=O)cc(C(C)(C)C)c1O
The GI50 of the first is 5.9-fold higher: 13.3 µM for the first, 2.27 µM for the second.

Compared with `C=CC(=O)Nc1nc(-c2cccc(NS(=O)(=O)c3cccc4c(N(C)C)cccc34)c2)cs1`, `Cn1cc(-c2cc(N)n3nc(-c4cn(C)c5ccccc45)cc3n2)c2cc(F)ccc21` is 3.6-fold lower in TGI: 20.9 µM for the first, 5.74 µM for the second.

First: Cc1ccc(S(=O)(=O)c2nc(-c3ccccc3)oc2S(=O)(=O)CC(=O)N2CCCC2)cc1
Second: CC(C)(C)c1cc(/C=C2\S/C(=N/c3ncn[nH]3)NC2=O)cc(C(C)(C)C)c1O
The TGI of the first is 1.7-fold higher: 26.1 µM for the first, 15.2 µM for the second.
